These results are taken from patent publication US20200299342A1 (GOVERNING COUNCIL OF THE UNIVERSITY OF TORONTO, published 2020).

The target in one assay is T1, SKP1 (Skp1), endogenous (human, UniProt P63208 2-163).
T1 construct: also called P63208
The assay can be described thus: FLAG-IP MS, HEK293T.

In another assay the target is T2, HA-Fbw7 (human, UniProt Q969H0 1-707).
T2 construct: Exogenously expressed in HEK293T cells; also called Fbw7-HA
The assay can be described thus: FLAG immunoprecipitation, HA western blot, HEK293T. A general note: Immunoblotting shows a protein as a band on a membrane.

The target in another assay is Skp1-F-box^Fbw2 complex (human, UniProt P63208 1-163). Description: ELISA, Skp1-F-box domain complexes. For orientation: An ELISA detects its analyte on a solid surface through an enzyme-linked reagent.
For another assay, the target named is T3, Skp1-F-box^Fbw7 complex (human, UniProt P63208 1-163).
T3 construct: Full-length Skp1 in complex with the F-box domain; also called SKp1-Fbw7
The assay can be described thus: competitive ELISA: Skp1-F-box^Fbw7 in solution (varied) blocks Ubv binding to the immobilised complex.

SKP1 (Skp1), endogenous, sequence (P63208 2-163 limits assumed): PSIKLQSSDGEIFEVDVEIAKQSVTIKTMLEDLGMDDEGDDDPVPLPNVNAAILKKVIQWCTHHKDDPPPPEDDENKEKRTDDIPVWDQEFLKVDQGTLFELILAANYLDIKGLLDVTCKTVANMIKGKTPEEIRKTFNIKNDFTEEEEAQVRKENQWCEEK
HA-Fbw7, sequence (Q969H0 other isoform, or with tags, fused parts or gaps limits assumed): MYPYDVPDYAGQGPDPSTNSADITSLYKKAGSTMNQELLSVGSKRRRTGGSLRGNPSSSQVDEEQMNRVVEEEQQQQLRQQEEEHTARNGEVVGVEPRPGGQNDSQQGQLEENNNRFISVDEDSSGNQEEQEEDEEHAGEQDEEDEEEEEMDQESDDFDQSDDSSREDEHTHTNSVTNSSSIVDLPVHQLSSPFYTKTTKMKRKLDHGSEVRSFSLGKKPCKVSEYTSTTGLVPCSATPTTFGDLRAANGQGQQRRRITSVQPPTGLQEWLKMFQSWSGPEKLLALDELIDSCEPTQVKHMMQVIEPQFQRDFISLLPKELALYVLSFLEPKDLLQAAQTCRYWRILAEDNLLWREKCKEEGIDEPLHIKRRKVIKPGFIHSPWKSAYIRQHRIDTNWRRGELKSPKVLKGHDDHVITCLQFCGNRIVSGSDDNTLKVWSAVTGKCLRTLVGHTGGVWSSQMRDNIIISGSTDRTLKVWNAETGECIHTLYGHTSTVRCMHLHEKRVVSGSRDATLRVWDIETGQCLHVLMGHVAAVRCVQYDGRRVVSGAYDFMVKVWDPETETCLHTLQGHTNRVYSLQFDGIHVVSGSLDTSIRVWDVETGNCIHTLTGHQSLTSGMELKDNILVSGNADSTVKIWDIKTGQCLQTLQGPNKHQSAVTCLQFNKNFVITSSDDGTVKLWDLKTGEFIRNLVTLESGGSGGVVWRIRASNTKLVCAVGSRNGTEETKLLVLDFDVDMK
Skp1-F-box^Fbw2 complex, sequence (P63208 other isoform, or with tags, fused parts or gaps limits assumed, chain 1 of 2): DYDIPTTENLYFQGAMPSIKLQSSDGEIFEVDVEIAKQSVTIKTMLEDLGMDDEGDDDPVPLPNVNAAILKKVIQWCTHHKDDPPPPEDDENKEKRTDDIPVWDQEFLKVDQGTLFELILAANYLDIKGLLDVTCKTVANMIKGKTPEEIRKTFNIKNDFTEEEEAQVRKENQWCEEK
Skp1-F-box^Fbw2 complex, sequence (chain, as listed by the source limits assumed, chain 2 of 2): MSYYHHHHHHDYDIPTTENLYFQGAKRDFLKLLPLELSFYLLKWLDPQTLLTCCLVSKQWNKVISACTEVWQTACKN
Skp1-F-box^Fbw7 complex, sequence (P63208 other isoform, or with tags, fused parts or gaps limits assumed, chain 1 of 2): as the sequence (P63208 other isoform, or with tags, fused parts or gaps limits assumed, chain 1 of 2) above
Skp1-F-box^Fbw7 complex, sequence (chain, as listed by the source limits assumed, chain 2 of 2): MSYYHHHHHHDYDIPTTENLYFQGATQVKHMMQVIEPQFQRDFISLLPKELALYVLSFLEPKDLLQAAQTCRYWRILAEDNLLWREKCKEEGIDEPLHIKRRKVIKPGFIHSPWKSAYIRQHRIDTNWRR

B1: FLAG-Ubv.Fw11.2 monomer (designed binder)
chain: MDYKDDDKGQGPDPSTNSADITSLYKKAGTMDYKDDDDKMQIFVKTYPYKYGTYHHNYTITLEVEPSDTIENVKAKIQDKEGIPPDQQVLIFSRKRLEDGRTLSDYNIQKESTLRLVLVFGRR
notes: Expressed in HEK293T cells
Take B1: the binding result in the assay with SKP1 (Skp1), endogenous is reported as “binds”.

B2: FLAG-Ubv.Fw7.5 monomer (designed binder)
chain: MDYKDDDKGQGPDPSTNSADITSLYKKAGTMDYKDDDDKMQIFVKTGARTGITLEVEPSDTIENVKAKIQDKEGIPPDQQVLIFSRKRLEDGRTLSDYNIQKESTLRLVLVFGRR
notes: Expressed in HEK293T cells
Regarding B2, the binding result in the assay with SKP1 (Skp1), endogenous is “binds”; in the assay with HA-Fbw7, “binds”.

B3: Ubv.Fw7.5 (designed binder)
chain: MAHHHHHHVTSLYKKAGDYKDDDDKMQIFVKTGARTGITLEVEPSDTIENVKAKIQDKEGIPPDQQVLIFSRKRLEDGRTLSDYNIQKESTLRLVLVFGRR
notes: Purified protein for ELISA
In general, IC50 refers to the concentration that gives 50% inhibition. On to B3, for which, in the assay with Skp1-F-box^Fbw2 complex, the “fold lower affinity than for Fbw7” value was found to be 8 fold. In addition, the 50% inhibitory concentration (IC50) in the assay with Skp1-F-box^Fbw7 complex was found to be 45 nM.
